# Measured values published in PubChem BioAssay AID686978 (National Center for Advancing Translational Sciences (NCATS), 2013).
# The whole screen tested about 420,000 compounds, of which about 64,000 (15%) were called active. Inconclusive means that the source gave no clear call. Such entries were picked first, then a sample of the others. Calls follow the shape of the dose curve; as a rule, active = well fitted inhibition curve with a large enough effect; inconclusive = small, poorly fitted or top-dose-only effect; inactive = flat fitted curve, though single readings scatter. No potency is given beside an inconclusive call; the fits are too rough.
# Test: qHTS for Inhibitors of human tyrosyl-DNA phosphodiesterase 1 (TDP1): qHTS in cells in absence of CPT; also: nearly all actives have a fitted effect of over 55% in size
# Details: DT40 Tdp1-/- hTDP1 cells, no CPT, ATP luminescence, 48 h; activity change, negative = growth inhibition: at 46.2 µM (top of the series)
# How it was run: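 Chicken DT40 Tdp1-/- cells complemented with human TDP1, screened without camptothecin (DMSO vehicle only), 400 cells/well. Compounds pin-transferred, cells incubated at 37 °C for at least 48 hr. Growth read as ATP-dependent luminescence (CellTiter-Glo, 30 min at RT).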
# % is scaled to controls: 0 for no effect and ±100 for the full control effect; potency is read from the fitted curve at half-maximal effect; tags tell the direction and shape of the fitted curve.
Structure (SMILES),"activity change, negative = growth inhibition",Potency
CCC1=NN(C(=O)Cc2ccc([N+](=O)[O-])cc2)C(O)(c2ccncc2)C1 (centres undefined),inactive: -1.8%,
O=C(Nc1ccc(S(=O)(=O)NCCc2ccccc2)cc1)c1ccncc1,,"inconclusive [inhibitor, partial curve]"
Cc1cccn2cc(-c3ccc4c(c3)NC(=O)CO4)nc12,inconclusive: -32.5% [inhibitor],
CC1=C(C(N)=O)S(=O)(=O)c2ccccc21,,"inconclusive [inhibitor, single point]"
Cc1ccc(-c2nc(CN3CCN(c4cnccn4)CC3)c(C)o2)o1,inactive: -14.2%,
Cc1ccc(OCC(=O)NNC(=S)NC(=O)c2cccs2)c(C)c1,,active: 16.4 µM
CN(c1ccc(O)cc1)c1nc(-c2cccnc2)cs1,inactive: -27.9%,
Cc1nc2nc(NCc3ccc(Br)cc3)[nH]n2c(=O)c1Cc1ccccc1,,"inconclusive [inhibitor, single point]"
CCCCOc1ccc(C(=O)Nc2cccc(-c3nc4ccccc4o3)c2C)cc1,inactive: -15%,
COc1ccc(/C=C/C(=O)C2CC2)cc1Cn1nc(C)c([N+](=O)[O-])c1C,,"inconclusive [inhibitor, single point]"
CC1(C)CC(=O)c2c(n(S(=O)(=O)c3ccccc3)c3ccc(NS(=O)(=O)c4ccccc4)cc23)C1,,"inconclusive [inhibitor, partial curve, poor fit]"
COC(=O)[C@]1(Cc2ccccc2)N[C@H](CN(C)C(=O)Nc2ccc(C)cc2)[C@@H]2C(=O)N(C)C(=O)[C@@H]21,inactive: 2.39%,
Cc1ccc(C)c(NS(=O)(=O)c2cc(C(=O)Nc3cccc(N(C)S(C)(=O)=O)c3)ccc2C)c1,,"inconclusive [inhibitor, single point]"
Cc1ccc(S(=O)(=O)N2CCCCC2)cc1NC(=O)c1ccc2c(c1)OCO2,,"inconclusive [inhibitor, single point]"
O=C(CSc1nnc(-c2ccco2)n1-c1ccccc1Cl)Nc1cccc(C(=O)O)c1,inactive: 14%,
O=c1c(-c2cc(F)cc(F)c2)nc2cnc(N3CCOCC3)nc2n1Cc1cccs1,inactive: 1.93%,
O=C(COC(=O)c1c(F)cccc1F)Nc1ccccc1OC(F)F,inactive: -4.07%,
O=C(CSc1nnc(-c2ccco2)c(-c2ccco2)n1)c1ccccc1,,"inconclusive [inhibitor, single point]"
CCOc1ccc(NC(=O)COn2nnc3ccc(S(=O)(=O)N4CCOCC4)cc32)cc1,,"inconclusive [inhibitor, single point]"
COc1cc2oc3ccccc3c(=O)c2cc1OC,,"inconclusive [inhibitor, single point]"
CCOC(=O)C(NCc1ccccn1)(NC(=O)c1cccnc1)C(F)(F)F (centres undefined),inactive: -8.94%,
CN(Cc1ccccc1)C(=O)c1ccccc1-c1ccccc1,,"inconclusive [inhibitor, single point]"
CCOC(=O)C1=CN(Cc2cccc(I)c2)S(=O)(=O)N(C)C1C (centres undefined),,"inconclusive [inhibitor, single point]"

Structure (SMILES),"activity change, negative = growth inhibition",Potency
O=C(Cn1cc(C(F)(F)F)cc(Cl)c1=O)NCc1ccc(Cl)cc1,inconclusive: -30.9% [inhibitor],
CCCCn1c(=O)[nH]c(=O)c2c1nc(CN1C(=O)c3ccccc3S1(=O)=O)n2CCC,,"inconclusive [inhibitor, single point]"
COc1ccccc1C(=O)NCCCNc1nc2cc(C)cc(C)c2cc1C#N,,"inconclusive [inhibitor, single point]"
O=S(=O)(N/N=C/c1ccc2c(c1)OCO2)c1ccc(Br)cc1,inactive: -1.74%,
CCOc1ccccc1N(C)C(=O)c1nn(-c2ccc(OC)cc2OC)c(=O)c2ccccc12,,"inconclusive [inhibitor, partial curve]"
COc1ncccc1-c1cc2nc(NCCCN(C)C)n(C)c(=O)c2s1,,active: 8.2 µM
O=C(CSc1nc2nc(-c3cccs3)cc(C(F)(F)F)c2c(=O)[nH]1)Nc1c(F)c(F)c(F)c(F)c1F,,"inconclusive [inhibitor, partial curve]"
O=C(CSc1nc2c(oc3ccccc32)c(=O)n1-c1ccccc1)Nc1ccc(F)c(Cl)c1,,active: 13 µM
CN(CCCC(=O)O)c1ccc(N=Nc2ccc([N+](=O)[O-])cc2)cc1,,"inconclusive [inhibitor, partial curve, poor fit]"
CNCCCOc1cc(C)cc(C)c1C,,"inconclusive [inhibitor, partial curve]"
C[C@]12c3[nH]c4cc(-c5ccco5)ccc4c3CCN1C(=O)[C@@H](CC(=O)NCCCn1ccnc1)C[C@@H]2C(=O)N1CCCCC1,inactive: -9.43%,
Cc1[nH]c2ccccc2c1C(=O)CSc1nc2cc(S(=O)(=O)N3CCCCC3)ccc2o1,,active: 20.6 µM
COc1ccc(OC)c(NC(=O)C2=C(C)C(=O)OC23CCN(C(C)C)CC3)c1,,"inconclusive [inhibitor, single point]"
O=C(CO/N=C/c1ccc(OC(F)F)cc1)NCc1ccc(F)cc1,,"inconclusive [inhibitor, partial curve]"
O=C(NCC1Cc2cccc(-c3nccs3)c2O1)c1ccnc(Cl)c1 (centres undefined),,"inconclusive [inhibitor, single point]"
Cc1cc(NC(=O)CSc2nc3ccsc3c(=O)n2Cc2ccccn2)n[nH]1,,"inconclusive [inhibitor, partial curve]"
Nc1ncc(CN2CCCC(C(=O)Nc3ccc(-c4ccco4)cc3)C2)cn1 (centres undefined),inactive: 2.56%,
COc1cc(CNc2ncnc3c2ncn3[C@H]2CN(Cc3cc(OC)c(OC)c(OC)c3)C[C@@H](CO)O2)cc(OC)c1OC,inactive: -25.1%,
CN(C)C(=O)c1ccccc1Sc1cc(Cl)ccc1Cl,inconclusive: -31.1% [inhibitor],
N#CC1(NC(=O)COC(=O)CSc2ccc(F)cc2)CCCCC1,,"inconclusive [inhibitor, partial curve]"
CCCCCn1c(CNC(=O)CC)nc2ccccc21,,"inconclusive [inhibitor, full curve, poor fit]"
Cc1ccc(S(=O)(=O)N(C)C)cc1NC(=O)COC(=O)COc1ccc2c(C)cc(=O)oc2c1,inactive: -3.35%,
Cc1ccccc1CSc1ccc2nnc(-c3ccccn3)n2n1,,"inconclusive [inhibitor, partial curve]"

Structure (SMILES),"activity change, negative = growth inhibition",Potency
CCOC(=O)c1c(NC(C)=O)c2c3c(sc2n1Cc1cc(C)ccc1C)CCCC3,,"inconclusive [inhibitor, full curve]"
O=c1c2c([N+](=O)[O-])cc([N+](=O)[O-])cc2sn1-c1ccc(Br)cc1,,"inconclusive [inhibitor, single point]"
O=C(CN1C2CCCC1CC(NC(=O)c1ccco1)C2)Nc1ccccc1C(F)(F)F (centres undefined),,active: 23.1 µM
Cc1ccc(OCC(=O)Nc2ccc(CN3CCOCC3)cc2)cc1C,,"inconclusive [inhibitor, partial curve]"
CC1CCN(C(=O)C2CCN(C(=O)c3ccc(C(C)(C)C)cc3)CC2)CC1,,"inconclusive [inhibitor, partial curve, poor fit]"
Cc1ccc(OCc2nnc(SCC(=O)Nc3cccc4ccccc34)n2-c2ccccc2)cc1,,"inconclusive [inhibitor, single point]"
Cc1ccccc1Cn1nnc(C(=O)Nc2cccc(C)c2C)c1N,,"inconclusive [inhibitor, single point]"
O=C(NCCCN1CCOCC1)c1ccc(CNS(=O)(=O)c2ccc(F)cc2)cc1,inactive: -29.7%,
Cc1ccc(C(=O)Nc2ccccc2C(=O)NCC2CCCO2)cc1 (centres undefined),inactive: -3.86%,
CCOc1ccccc1NC(=O)Cn1c(=O)n(Cc2ccco2)c(=O)c2sc3ccccc3c21,,"inconclusive [inhibitor, single point]"
CC(=O)NC(NC(=S)Nc1ccc(N=Nc2ccccc2C)cc1C)C(Cl)(Cl)Cl (centres undefined),,"inconclusive [inhibitor, single point]"
CCCCCCC1CC(/C(C)=N\NC(N)=O)OC1=O (centres undefined),inactive: -6.9%,
Cc1ccc(S(=O)(=O)NCCC(=O)Nc2ccc(Cl)c(Cl)c2)cc1,,active: 16.4 µM
CCc1nc(SCC(=O)Nc2ccc(N(C)C)cc2)n[nH]1,,active: 4.61 µM
COc1ccc(/C=C/C(O)=C2/C(=O)NC3(C)CC2c2ccccc2O3)c(OC)c1OC (centres undefined),,active: 7.31 µM
Cc1nc([N+](=O)[O-])c(C(=O)OCc2ccccc2Br)n1C,,"inconclusive [inhibitor, single point]"
Cc1nn(CCO)c(N)c1C1(O)C(=O)Nc2c(Cl)cc(Cl)cc21 (centres undefined),,active: 3.26 µM
CC(=O)N1N=C(c2ccccc2O)CC1c1cccs1 (centres undefined),,active: 6.51 µM
CCn1c(C)c(C)c2cc(C(=O)NCCc3cc(OC)ccc3OC)ccc21,,active: 14.6 µM
COc1ccc(C2=CC(=O)C[C@H](c3ccc(OC)c(OC)c3)C2)cn1,,"inconclusive [inhibitor, single point]"
O=C(COc1ccccc1)Nc1nc(-c2cccnc2)cs1,,"inconclusive [inhibitor, partial curve]"
O=C(Nc1nnc(C2CCCCC2)s1)C1CCN(C(=O)c2ccco2)CC1,,"inconclusive [inhibitor, single point]"
Cc1c(C#N)c(NC(=O)c2ccccc2)n(Cc2ccccc2)c1C,,"inconclusive [inhibitor, single point]"
